Source: PMC5965893
No constants are given. Whether binding was seen depends on the method and setting. Binding seen in cells or lysates may run through a third protein. Some binding calls cover weakened binding; strength is not graded here. For some of these results: Tags and fused reporters may be left off the sequences shown. One block for each binder: values may come before it.

The chains behind the UniProt entries cited, without tags or fusion partners. Residues count along the entry.
UniProt Q16288, residues 496-641: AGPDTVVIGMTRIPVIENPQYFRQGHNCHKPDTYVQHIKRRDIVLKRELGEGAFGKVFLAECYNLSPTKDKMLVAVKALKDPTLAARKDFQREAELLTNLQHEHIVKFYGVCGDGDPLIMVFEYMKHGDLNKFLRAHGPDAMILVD
UniProt Q00987: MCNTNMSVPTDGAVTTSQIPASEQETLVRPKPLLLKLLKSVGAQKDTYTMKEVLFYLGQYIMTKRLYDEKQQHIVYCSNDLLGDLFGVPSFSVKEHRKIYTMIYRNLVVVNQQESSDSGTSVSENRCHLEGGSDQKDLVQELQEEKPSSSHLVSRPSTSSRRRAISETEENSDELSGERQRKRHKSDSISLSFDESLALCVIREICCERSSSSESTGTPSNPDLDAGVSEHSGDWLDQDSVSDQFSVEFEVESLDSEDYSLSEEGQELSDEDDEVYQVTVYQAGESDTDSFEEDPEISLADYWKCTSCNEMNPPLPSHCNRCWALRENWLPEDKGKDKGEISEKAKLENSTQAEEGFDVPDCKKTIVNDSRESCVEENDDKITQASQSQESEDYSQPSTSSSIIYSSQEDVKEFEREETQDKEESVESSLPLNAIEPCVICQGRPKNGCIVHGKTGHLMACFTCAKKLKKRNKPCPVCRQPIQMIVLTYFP

Columns and labels:
[1] = biological target: GFP-tagged TrkC killer-fragment (TrkC-KF-GFP) (UniProt Q16288); test: co-IP; transfected HEK293T cells lysed in 50 mM HEPES pH 7.6, 125 mM NaCl, 5 mM EDTA, 0.1% NP-40; immunoprecipitation with anti-GFP and protein G sepharose; western blot with anti-Flag
[2] = biological target: endogenous MDM2 (human (endogenous in SHEP)) (UniProt Q00987); test: proximity ligation; DuoLink PLA on SHEP cells fixed in 4% PFA and permeabilised; pairs of primary antibodies (anti-GFP or anti-Flag for the TrkC constructs; pan-importin, anti-Hey1 or anti-MDM2 for endogenous proteins); red spots counted per cell
[3] = biological target: GFP-tagged TrkC killer-fragment (TrkC-KF-GFP) (UniProt Q16288); test: as above

B1: Hey1-Flag (protein, UniProt Q9WV93 1-299)
chain: MKRAHPDYSSSDSELDETIEVEKESADENGNLSSALCSMSPTTSSQVLARKRRRGIIEKRRRDRINNSLSELRRLVPSAFEKQGSAKLEKAEILQMTVDHLKMLHTAGGKGYFDAHALAMDYRSLGFRECLAEVARYLSIIEGLDASDPLLVRLVSHLNNYASQREAASGAHGGLGHIPWGSAFGHHPHIAHPLLLPQNGHGNAGTAASPTEPHHQGRLASAHPEAPALRAPPSGGLGPVLPVVTSASKLSPPLLSSVASLSAFPFSFSSFHLLSPSTPTQAANLGKPYRPWGTEIGAF
binding [1]: binds

B2: HeyL-Flag (protein, UniProt Q9DBX7 1-326)
chain: MKRPRAPSGSDGESDGPIDVGQENDLSQMARPLTTPSPSQMQARKKRRGIIEKRRRDRINSSLSELRRLVPTAFEKQGSSKLEKAEVLQMTVDHLKMLHASGGTGFFDARALAVDFRSIGFRECLTEVIRYLGVLEGPSSHADPVRIRLLSHLKSYAAEMEPSPTTTSALAFPVWPWSFLHSCPGLPSLNSQLAILGRVPGPVLPSISSPPYPISALRSAPVHRPAGTIPPTRRNLLPSRGVTSTQRAHLPERPAAPPPTALDARAARSIVPIPPCSPTTAPGAGKSDDNVSGSISSPCPSGPTGRPAGAVFYHSWVSEITEIGAF
binding [1]: no binding

binding [2]: no binding
B3: endogenous Hey1 (protein, UniProt Q9Y5J3 1-304)
chain: MKRAHPEYSSSDSELDETIEVEKESADENGNLSSALGSMSPTTSSQILARKRRRGIIEKRRRDRINNSLSELRRLVPSAFEKQGSAKLEKAEILQMTVDHLKMLHTAGGKGYFDAHALAMDYRSLGFRECLAEVARYLSIIEGLDASDPLRVRLVSHLNNYASQREAASGAHAGLGHIPWGTVFGHHPHIAHPLLLPQNGHGNAGTTASPTEPHHQGRLGSAHPEAPALRAPPSGSLGPVLPVVTSASKLSPPLLSSVASLSAFPFSFGSFHLLSPNALSPSAPTQAANLGKPYRPWGTEIGAF
binding [3]: binds
